The source of these data is PubChem BioAssay AID1645887 (National Center for Advancing Translational Sciences (NCATS), 2021).

Each structure is given as a SMILES string. Several values for one entry are separate records, joined by “and”; a condition that tells them apart may be missing. Equal values may be shown once. In all, about 16,000 compounds went through this assay and about 40 (0.2%) were called active. About 1% were inconclusive and are not listed. Calls come from the whole dose curve; as a rule, active = well fitted activation curve with a large enough effect; inconclusive = small, poorly fitted or top-dose-only effect, or another doubt; inactive = no such curve, though single readings can be large or run the other way. The list shows a part of the results.
% is set by controls: 0 for no effect and ±100 for the full control effect.

Chain of UniProt Q8WZA2 (Q8WZA2 whole entry, looked up): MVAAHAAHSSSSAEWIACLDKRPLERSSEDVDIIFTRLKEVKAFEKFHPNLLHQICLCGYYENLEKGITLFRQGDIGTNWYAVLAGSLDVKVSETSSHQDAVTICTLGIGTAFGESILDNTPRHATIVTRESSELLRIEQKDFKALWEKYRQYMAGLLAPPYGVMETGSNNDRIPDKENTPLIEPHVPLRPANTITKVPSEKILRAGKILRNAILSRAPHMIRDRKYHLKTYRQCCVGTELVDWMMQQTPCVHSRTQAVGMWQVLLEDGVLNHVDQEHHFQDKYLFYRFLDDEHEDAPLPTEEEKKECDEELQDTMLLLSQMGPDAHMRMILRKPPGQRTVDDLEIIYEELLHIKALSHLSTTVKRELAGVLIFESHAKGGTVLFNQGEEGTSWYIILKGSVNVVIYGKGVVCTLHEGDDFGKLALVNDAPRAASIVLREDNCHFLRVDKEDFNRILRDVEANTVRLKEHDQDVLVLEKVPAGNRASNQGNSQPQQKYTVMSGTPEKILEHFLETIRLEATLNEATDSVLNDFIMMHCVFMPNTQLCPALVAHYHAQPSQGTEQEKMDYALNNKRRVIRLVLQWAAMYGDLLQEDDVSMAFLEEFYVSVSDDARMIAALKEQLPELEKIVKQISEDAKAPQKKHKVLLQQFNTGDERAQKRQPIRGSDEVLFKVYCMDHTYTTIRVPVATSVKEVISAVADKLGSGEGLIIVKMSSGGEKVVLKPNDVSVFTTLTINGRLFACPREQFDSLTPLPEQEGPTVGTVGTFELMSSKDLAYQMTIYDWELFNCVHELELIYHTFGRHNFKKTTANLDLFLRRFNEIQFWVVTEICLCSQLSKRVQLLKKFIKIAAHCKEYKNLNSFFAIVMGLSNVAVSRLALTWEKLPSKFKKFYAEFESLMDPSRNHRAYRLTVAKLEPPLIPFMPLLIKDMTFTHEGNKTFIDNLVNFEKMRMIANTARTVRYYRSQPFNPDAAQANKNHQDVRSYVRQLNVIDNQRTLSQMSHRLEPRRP

The target of the experiment is Rap guanine nucleotide exchange factor 4 (Homo sapiens) (UniProt Q8WZA2). The experiment is described as follows: Validation qHTS for agonist of cAMP-regulated guanine nucleotide exchange factor 4 (EPAC2).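 Note: exchange makes BODIPY-GDP fluorescence drop when released from Rap1B; series mostly up to about 150 µM.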 The settings on record: EPAC2 Rap1B BODIPY-GDP exchange, fluorescence; activation: stronger effect = higher value. Summed up:
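Signal normalized against 6.5 mM cAMP as agonist control. Mix of EPAC2 (100 nM), RAP1B-BODIPY-GDP (250 nM) and GDP (50 uM) was read kinetically at 480/540 nm, every 5 min over 30 min, after 5 min room-temperature incubation with compound.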
For the molecule `C=Nc1ccc(/C=C/c2ccnc3ccccc23)cc1`, the activation was inactive: 9.85%. For `CN(C)c1nc(-c2ccccc2C(F)(F)F)nc2ccccc12`, the activation was inactive: -19.3%. To `Oc1ccc(OCc2ccccc2)cc1` belongs inactive: 5.35%; to `COCCn1c(=O)c(-c2ccc(F)cc2)nc2cnc(Oc3ccccc3)nc21`, inactive: 2.49%; to `COc1cc(O)c2c(=O)cc(-c3ccccc3)oc2c1`, inactive: -9.41%.

As to `CC(C)C[C@@H](COc1ccccc1)N1CCN(CCc2ccccc2)CCC1=O`, the activation is inactive: -16.1%. To `COc1ccc(OC)c(-c2ccc(O)c(CN3CCc4c([nH]c5ccccc45)C3)c2)c1` belongs inactive: 7.59%; to `c1ccc(CNc2ccnc(-c3ccoc3)n2)cc1`, inactive: -0.57%. To `CC(=O)OCC(=O)[C@@]1(O)CC[C@H]2[C@@H]3CCC4=CC(=O)CC[C@]4(C)C3=CC[C@@]21C` belongs inactive: -5.3%; to `COC(=O)CNC(=O)C(=O)OC`, inactive: 5.94%; to `CCCn1c(=O)c2c(ncn2C)n(CCC)c1=O`, inactive: 2.02% and inactive: 5.72%. Under `COc1cccc(CNC(=O)c2c(OC)cc(=O)n3c2CCN(C(=O)c2cc(F)cc(F)c2)CC3)c1` stands inactive: -4.78%. `C[C@H]1C[C@H]2[C@@H]3CCC4=CC(=O)C=C[C@]4(C)[C@@]3(F)[C@@H](O)C[C@]2(C)[C@@]1(O)C(=O)CO`: the activation was inactive: -18.1%. On to `COc1cccc(-c2cncnc2Nc2ccccc2)c1`, for which the activation was inactive: -4.51%. In the case of `COc1cccc(Cn2c(=O)c(CCc3ccccc3)nc3cnc(OC)nc32)c1`, the activation was inactive: 8.19%.

Consider `CC(C)C1=CC2=CC[C@@H]3[C@](C)(CCC[C@@]3(C)C(=O)O)[C@H]2CC1`, for which the activation is inactive: 1.84%. Consider `COc1ccccc1CNc1cc(-c2ccccc2Cl)ncn1`, for which the activation is inactive: 9.1%. Under `CN(C)c1ncc2nc(-c3cccs3)c(=O)n(C[C@H]3CCCO3)c2n1` stands inactive: 15.7%. Under `CNC(=O)[C@H](Cc1c[nH]c2ccccc12)NC(=O)[C@@H](CC(=O)NO)CC(C)C` stands inactive: -2.43% and inactive: 3.48%. To `CCN(CC)CCOc1ccccc1OC` belongs inactive: 5.29%; to `O=C(c1ccncc1)N1CCC2(CCN(Cc3ccccc3)CC2)CC1`, inactive: -6.45%; to `CCCCCCCCN1[C@@H](CC(=O)O)c2cc(C(F)(F)F)ccc2S1(=O)=O`, inactive: -16.5%.

Consider `CCc1nc2cc(C(=O)NC3CCS(=O)(=O)C3)cc(NC(=O)c3ccccc3OC)c2n1C` (stereo unspecified), for which the activation is inactive: -7.21%. Under `COC(=O)CC[C@@H](C)[C@H]1CC[C@H]2[C@@H]3CC[C@@H]4C[C@H](O)CC[C@]4(C)[C@H]3C[C@H](O)[C@]12C` stands inactive: 5.7%; under `COc1cccc(-c2cc(NCCc3c[nH]c4ccc(OC)cc34)ncn2)c1`, inactive: -2.38%; under `Cc1ncc2c(c1CNC(=O)/C=C/c1cccs1)CCN(C(=O)c1cc(C(C)C)on1)C2`, inactive: -7.04%. Regarding `COc1cccc(C2(CC(=O)N3CCN(c4ccccn4)CC3)CC(=O)N(C3CCCC3)C2=O)c1` (stereo unspecified), the activation is inactive: 1.04%. Under `CN1CCN(c2nc3cc(C(F)(F)F)ccc3n3cccc23)CC1` stands inactive: -17.6% and inactive: 3.07% and inactive: -54.3%. To `CC(C)(C)C1(O)CCN2CC3c4ccccc4CCc4cccc(c43)C2C1` (stereo unspecified) belongs inactive: 3.4%; to `Fc1cccc(/C=N/N=C/c2cccc(F)c2)c1`, inactive: -13.7%. To `O=C(NO)c1ccccc1` belongs inactive: -29.6%; to `O=C(O)/C=C/c1ccc(Cn2ccnc2)cc1`, inactive: -1.8%; to `COc1ccc(-n2c(=O)c(-c3cn(C)c4ccccc34)nc3cnc(N4CCOCC4)nc32)cc1`, inactive: -5.66%. With `COc1cccc(Cn2c(=O)c(-c3ccc(F)cc3)nc3cnc(N4CCNCC4)nc32)c1`, the activation is inactive: 12.8%. Take `COc1ccc(-n2c(CNC(=O)c3cc(C(F)(F)F)ccc3Cl)nnc2SC)cc1`: the activation is inactive: 5.83%. Under `N#CCCn1c(=O)c(CCc2ccccc2)nc2cnc(Oc3ccccc3)nc21` stands inactive: -1.47%; under `Cc1nc2cnc(N3CCN(C)CC3)nc2n(CCc2ccccc2)c1=O`, inactive: -0.378%. To `CN1CCN(c2cc3c(nn2)Oc2ccccc2N3C)CC1` belongs inactive: -12.5%; to `COc1ccc(C(=O)C[n+]2ccccc2Cl)cc1`, inactive: -32.6%.

`Cc1c(C(=O)N(C)Cc2cscn2)sc2ncnc(NC[C@H]3CCc4ccccc4O3)c12`: the activation was inactive: -2.34%. To `CCCCCc1ccc(-c2cn(Cc3cccc(OC)c3)nn2)cc1` belongs inactive: -12.6%. Under `COc1ccccc1C1CN(Cc2c(O)cccc2OC)Cc2ccccc2O1` (stereo unspecified) stands inactive: 1.06%; under `CC(=O)O[C@H](CC(=O)O)C[N+](C)(C)C`, inactive: -22.4%. Under `CCC1=C(C)CN(C(=O)NCCc2ccc(S(=O)(=O)NC(=O)NC3CCC(C)CC3)cc2)C1=O` (stereo unspecified) stands inactive: -13.3%. For `c1ccc(CNc2cc(-c3ccoc3)ncn2)cc1`, the activation was inactive: -11%.

`CCn1nc(C(=O)O)c(=O)c2cc3c(cc21)OCO3`: the activation was inactive: -0.0654% [middle of 4 runs]. To `O=C(O)C(S)C(S)C(=O)O` (stereo unspecified) belongs inactive: 4.36%. For `COc1cc2c(cc1OC)C(c1ccc(N)cc1)=NNC(=O)C2`, the activation was inactive: -23.2% and inactive: 3.79%. For `CCCCN1CCC(CCC(=O)c2cc(Cl)c(N)cc2OC)CC1`, the activation is inactive: -5.02% and inactive: -0.264%. Under `Cc1onc(-c2ccccc2Cl)c1C(=O)NC1C(=O)N2C1SC(C)(C)C2C(=O)O` (stereo unspecified) stands inactive: -14.6%; under `Cc1cc(/C=C/c2ccc3cc(N(C)C)ccc3[n+]2C)c(C)n1-c1ccccc1`, inactive: -6.23% and inactive: -12.6%; under `CCOC(=O)CCCCCCCCCCCCC1C=CCC1` (stereo unspecified), inactive: -9.88%. Regarding `COc1ccc(O)c(CN2CCC3(CCC(CNC(=O)c4ccco4)O3)CC2)c1` (stereo unspecified), the activation was inactive: -2.11%. Under `COc1ccc2[nH]c(C)cc2c1` stands inactive: -18.5%; under `COc1ccc(Oc2ncc3nc(C)c(=O)n(Cc4cccc(OC)c4)c3n2)cc1`, inactive: 7.29%; under `CCCCNc1ccc(C(=O)OCCOCCOCCOCCOCCOCCOCCOCCOCCOC)cc1`, inactive: -18.2%.
